The values that follow come from publication PMC4242493.

The other results are listed elsewhere or left out. The list includes weakly bound sequences.

In the assay the target is MaxL homodimer (UniProt P61244). Nature of the assay: universal protein-binding microarray (PBM). The settings on record: PBS-based mixture, 10 nM His-tagged protein dimer, 2% milk, 200 ng/uL BSA, 50 ng/uL salmon testes DNA, 0.02% TX-100; detection with Alexa 488 anti-His …; high values mean tight binding; most listed sequences are background and not binding sites; double strand, one strand shown.
Sequence of UniProt P61244 (P61244 whole entry): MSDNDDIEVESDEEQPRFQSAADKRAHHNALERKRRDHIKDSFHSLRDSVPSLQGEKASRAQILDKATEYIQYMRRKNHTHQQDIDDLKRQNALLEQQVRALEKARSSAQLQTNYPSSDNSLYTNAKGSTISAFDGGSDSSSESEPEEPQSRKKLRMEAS
Turning to CAGGTGGG, the binding signal (normalized occupancy) stood at 0.101.
To ATTTTATA belongs 0.0812; to AACTCGGC, 0.069.
For the sequence AAGCTAGA, the binding signal (normalized occupancy) turned out to be 0.0705.
ACAGTCGA: the binding signal (normalized occupancy) amounted to 0.0696.
To AGTAGCCG belongs 0.0691.
For CCAGTCGC, the binding signal (normalized occupancy) is 0.0722.
The figure for ATGGGTAA is 0.078; for AAGCCTGT it is 0.0732; for GGAACACC it is 0.0733.
Consider GCCGCATA, for which the binding signal (normalized occupancy) stood at 0.0742.
On to GGGCGCTA, for which the binding signal (normalized occupancy) was 0.0692.
The figure for ACCATTGC is 0.0746; for CTAGGACC it is 0.0697.
Take CTGCTACC: the binding signal (normalized occupancy) was determined as 0.0844.
To ATGATAGC belongs 0.0828; to ATTGGGCG, 0.0761; to AAAAATGA, 0.0781.
To AGATTGAC belongs 0.0796; to CCCTACAC, 0.0837; to ACGGATAA, 0.0801.
Turning to CGTCTATA, the binding signal (normalized occupancy) was 0.0838.
To ACGCCGAC belongs 0.0741; to AAGTATTC, 0.075.
Regarding ACTCCCGA, the binding signal (normalized occupancy) is 0.0719.
The figure for AGCCTACT is 0.0724; for ACACGCTA it is 0.0915; for AACTGAGT it is 0.0721.
The figure for AGGACTTC is 0.0699; for CAAATTTC it is 0.0715; for ATGCAATC it is 0.0819.
To AATCTGTC belongs 0.0759; to CACTCAGG, 0.0732.
For the sequence ACTAGTCT, the binding signal (normalized occupancy) is 0.0733.
Turning to GAATTTGA, the binding signal (normalized occupancy) was found to be 0.073.
To AACTAGCC belongs 0.0676; to CAGCGAGG, 0.0778; to AGACCAGC, 0.0672.
TCGTTTAA: the binding signal (normalized occupancy) came out at 0.0745.
On to ACACGAAT, for which the binding signal (normalized occupancy) came out at 0.0776.
As to CATGCTGA, the binding signal (normalized occupancy) came out at 0.112.
The figure for CTCACGTA is 0.0774; for CAAATCAA it is 0.0782; for ATCGGGAA it is 0.0725.
The figure for CACCGGCG is 0.0698; for ATTACCCC it is 0.0859.
The figure for ATTTGGAA is 0.0767; for CTCTGCCA it is 0.0764.
Consider GGCACAAA, for which the binding signal (normalized occupancy) was found to be 0.0731.
The figure for ATTTCCAG is 0.0763.
Turning to CCACTATC, the binding signal (normalized occupancy) is 0.0771.
To GGAACAGA belongs 0.0729; to CCGTCCAG, 0.0727; to AGTAGGGA, 0.0699.
The figure for CAAGCAGA is 0.0695; for CAGATAGC it is 0.0738.
To AATAGCTC belongs 0.0703.
Turning to CTCACAAC, the binding signal (normalized occupancy) stood at 0.0786.
As for CCTCGCAG, the binding signal (normalized occupancy) was 0.0737.
To CCGTCGCC belongs 0.0694.
To CCTGAAGG belongs 0.0681; to AATCGTTG, 0.0788.
The figure for AAAGTCCA is 0.0783; for CGACATTA it is 0.083.
Take GTCCAAGA: the binding signal (normalized occupancy) came to 0.0714.
On to GTGTCAAC, for which the binding signal (normalized occupancy) was determined as 0.0756.
Regarding TACAGCCA, the binding signal (normalized occupancy) is 0.0764.
To ATTATAGC belongs 0.0825; to AGGGGACG, 0.0705.
As for ATGGGTCA, the binding signal (normalized occupancy) was 0.0818.
As for CCTCATAG, the binding signal (normalized occupancy) worked out at 0.0755.
TATGAGGA: the binding signal (normalized occupancy) was determined as 0.0851.
To AGAGTTAG belongs 0.0729; to GACCTTGA, 0.0732.
Consider ATTTCGCC, for which the binding signal (normalized occupancy) is 0.0764.
CGACTCTC: the binding signal (normalized occupancy) was determined as 0.0722.
As for CGTGTGGA, the binding signal (normalized occupancy) was 0.0865.
As to AATGAAGT, the binding signal (normalized occupancy) turned out to be 0.0779.
For CACAATGC, the binding signal (normalized occupancy) worked out at 0.0858.
Regarding ACAACGGG, the binding signal (normalized occupancy) was found to be 0.0774.
For GATTCGCC, the binding signal (normalized occupancy) was 0.0738.
Turning to CTAAACAC, the binding signal (normalized occupancy) amounted to 0.0808.
The figure for GACTTAGA is 0.0733; for CATTACAA it is 0.0753.
The figure for AGGTGCGA is 0.0728.
In the case of ATTTCGAG, the binding signal (normalized occupancy) was 0.0698.
Consider GCCTAGAA, for which the binding signal (normalized occupancy) amounted to 0.0716.
Regarding AAGGGGGA, the binding signal (normalized occupancy) was found to be 0.078.
In the case of CCAACGAA, the binding signal (normalized occupancy) turned out to be 0.0743.
The figure for CATAAAAA is 0.0753; for AGGCGCTC it is 0.0678; for AAGTCCAG it is 0.0671.
The figure for ATATTTAG is 0.0794; for AACGGGAT it is 0.0779; for ATCCGAGC it is 0.072.
In the case of AGTTTGTG, the binding signal (normalized occupancy) came out at 0.0732.
The figure for CAAGGTGC is 0.0812.
To TAGATCCA belongs 0.0771; to CGATTCCG, 0.066; to ACCCCCAG, 0.076.
CATAAAAC: the binding signal (normalized occupancy) stood at 0.085.
With ACTAAGGC, the binding signal (normalized occupancy) stood at 0.0707.
On to CACGAGTG, for which the binding signal (normalized occupancy) was determined as 0.0961.
To TGACCTCA belongs 0.0803; to AAGGGCAT, 0.0776.
On to CGCGGGTC, for which the binding signal (normalized occupancy) was 0.0712.
The figure for TGGGGACA is 0.078; for CGATCCAG it is 0.072; for CGTGTTAA it is 0.0819.
Take CAGGGTCG: the binding signal (normalized occupancy) was 0.0678.
The figure for ACGTGGAC is 0.106; for CATAAGCC it is 0.0793; for ATCGTTTG it is 0.0726.
Consider CTGTCCGA, for which the binding signal (normalized occupancy) was 0.0691.
Consider GTAGCCCA, for which the binding signal (normalized occupancy) came out at 0.073.
The figure for TAGGTGGA is 0.0718; for AAGCTGAT it is 0.0732; for CCAGACGA it is 0.0707.
Regarding ATGCTCTC, the binding signal (normalized occupancy) is 0.0819.
The figure for TTTAGAAA is 0.0723; for GATGCCTA it is 0.0805; for ACGCCGGG it is 0.0728.
To GAGACACC belongs 0.0741; to TAGCGATA, 0.0741; to CCGATGTC, 0.073.
To GAAGCGAA belongs 0.0707; to GACTGAAA, 0.0682; to ACGGGTGC, 0.0759.
Turning to GCTGACAA, the binding signal (normalized occupancy) was found to be 0.0757.
Regarding CTAATCAG, the binding signal (normalized occupancy) turned out to be 0.0724.
The figure for CGGGTCGA is 0.0689; for AGCGTGCC it is 0.0969; for ACCTCTAG it is 0.0704.
As to AACGCCAG, the binding signal (normalized occupancy) was found to be 0.072.
The figure for AATTTAGG is 0.073.
In the case of CCGAGCAA, the binding signal (normalized occupancy) is 0.0677.
With CACGTTCG, the binding signal (normalized occupancy) was 0.0852.
As for AGCAACCA, the binding signal (normalized occupancy) was 0.0745.
Consider ACACGCTC, for which the binding signal (normalized occupancy) was 0.0924.
As to CCGACCCG, the binding signal (normalized occupancy) came out at 0.078.
Take ACTACTAG: the binding signal (normalized occupancy) came to 0.0785.
For the sequence GAGATCTA, the binding signal (normalized occupancy) was 0.0758.
As to AAGCTAGG, the binding signal (normalized occupancy) came out at 0.0695.
To CCGGTGTC belongs 0.0704; to CTAATACA, 0.0822.
AAATGCAA: the binding signal (normalized occupancy) worked out at 0.0709.
With ATTCGCGA, the binding signal (normalized occupancy) worked out at 0.0732.
To CAGGATCA belongs 0.078.
With CGGCTTGA, the binding signal (normalized occupancy) worked out at 0.0699.
The figure for ATCGGGGG is 0.0753; for GACCGAAA it is 0.0684.
To CTGCTGCC belongs 0.0719.
Take CCTGCTAA: the binding signal (normalized occupancy) was 0.0709.
In the case of GGCTGACC, the binding signal (normalized occupancy) stood at 0.0689.
To ATACTGAG belongs 0.0804.
To GCGTACGC belongs 0.0765; to ATCGCTTG, 0.0686; to ACTGTACC, 0.076.
CGTATGAA: the binding signal (normalized occupancy) was 0.0812.
To CATGTAAG belongs 0.0926.
Take AGTCCGCC: the binding signal (normalized occupancy) is 0.0705.
The figure for ATTACCGG is 0.074.
In the case of CGGATACC, the binding signal (normalized occupancy) came to 0.0816.
For the sequence ACCTGTTG, the binding signal (normalized occupancy) is 0.0865.
The figure for ATTTAATC is 0.0756; for CAGATAAG it is 0.076.
To CGGACTCC belongs 0.0635; to CTTTGGAC, 0.0706.
The figure for ATAGGCAG is 0.0779; for ATCAGATC it is 0.082; for ATTTTCGA it is 0.0726.
For the sequence CCTTTGGA, the binding signal (normalized occupancy) was found to be 0.0699.
